# Out of some 310,000 compounds screened, about 2,200 (0.71%) showed an effect of 50% or more. Effects have a minus sign here. The list shows a part of the results.
# Target: human ether-à-go-go-related gene (hERG) potassium channel (human, UniProt Q12809)
# Test: primary screen, population patch clamp on CHO cells stably expressing hERG
# human ether-à-go-go-related gene (hERG) potassium channel, sequence (Q12809 whole entry, looked up): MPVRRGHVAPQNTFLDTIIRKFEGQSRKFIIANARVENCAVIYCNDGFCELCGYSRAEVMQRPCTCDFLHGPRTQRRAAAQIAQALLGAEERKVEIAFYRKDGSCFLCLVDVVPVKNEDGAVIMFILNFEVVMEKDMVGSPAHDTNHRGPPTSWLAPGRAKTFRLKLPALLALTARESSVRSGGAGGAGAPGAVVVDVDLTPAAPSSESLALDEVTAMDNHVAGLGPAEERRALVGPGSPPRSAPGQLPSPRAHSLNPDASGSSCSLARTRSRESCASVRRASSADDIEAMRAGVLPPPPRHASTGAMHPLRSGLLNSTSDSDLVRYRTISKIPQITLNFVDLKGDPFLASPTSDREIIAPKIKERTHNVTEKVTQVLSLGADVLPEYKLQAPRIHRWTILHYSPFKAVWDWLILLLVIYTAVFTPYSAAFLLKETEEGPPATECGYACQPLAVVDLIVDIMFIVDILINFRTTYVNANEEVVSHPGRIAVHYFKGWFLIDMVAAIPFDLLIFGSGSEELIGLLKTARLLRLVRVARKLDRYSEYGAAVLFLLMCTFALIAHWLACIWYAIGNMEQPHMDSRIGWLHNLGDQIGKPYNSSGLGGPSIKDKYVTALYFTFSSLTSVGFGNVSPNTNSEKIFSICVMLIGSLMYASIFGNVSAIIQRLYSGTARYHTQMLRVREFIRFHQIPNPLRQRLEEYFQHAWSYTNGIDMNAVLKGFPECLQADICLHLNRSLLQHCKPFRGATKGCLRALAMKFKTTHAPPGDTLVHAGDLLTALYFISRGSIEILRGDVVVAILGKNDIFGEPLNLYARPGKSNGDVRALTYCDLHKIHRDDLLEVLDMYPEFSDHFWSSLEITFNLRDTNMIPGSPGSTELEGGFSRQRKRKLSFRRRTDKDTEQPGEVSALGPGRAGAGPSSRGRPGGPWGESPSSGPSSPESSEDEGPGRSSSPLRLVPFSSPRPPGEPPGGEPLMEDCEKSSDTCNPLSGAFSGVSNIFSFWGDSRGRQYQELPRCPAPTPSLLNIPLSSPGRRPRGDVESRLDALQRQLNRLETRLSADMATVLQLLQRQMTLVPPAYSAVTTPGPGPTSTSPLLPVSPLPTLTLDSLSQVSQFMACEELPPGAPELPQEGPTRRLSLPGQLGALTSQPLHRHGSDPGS
row,Compound,"hERG current change (%, negative = inhibition) at 1uM [%]"
1,COc1ccc(NS(=O)(=O)c2cc(S(C)(=O)=O)ccc2C)cc1,14.8
2,COc1ccc(C)cc1NC(=O)CCCN1C(=O)C2CC=CCC2C1=O (stereo not shown),1.78
3,O=C(CCCC(=O)NCC1CCCO1)NCC1CCCO1 (stereo not shown),3.68
4,CCOc1ccccc1C(=O)NCC(=O)N(C)Cc1cccnc1,17.2
5,Cc1ccc(NC(=O)c2ccco2)c(NC(=O)CN2C(=O)c3ccccc3C2=O)c1,4.77
6,CC(C)(C)c1ccc(/C=C2\SC(=O)N(CCNC(=O)c3cccc(S(=O)(=O)N4CCOCC4)c3)C2=O)cc1,28.4
7,CC(=O)Nc1ccccc1-c1nc2ccccc2nc1OCC(=O)c1ccc(Cl)cc1,8.15
8,CC1=[N+](CC(=O)c2ccccc2)CCn2cccc21.[Br-],11.3
9,C=CCc1cc(OC)ccc1OCCCCn1cncn1.O=C(O)C(=O)O,15.1
10,COc1cccc(CNCCN2CCOCC2)c1OC,5.08
11,CCC(C)(C)NC(=O)C1CCCN1C(=O)NC1CCCCC1 (stereo not shown),13.3
12,Cc1ccc(C(=O)c2cn(-c3ccc(F)c(Cl)c3)nn2)cc1,-0.208
13,O=C(Nc1ccc(S(=O)(=O)NCCc2ccccc2)cc1)c1ccc(Br)o1,5.88
14,Cc1ccc(C(=O)COC(=O)CNC(=O)Cc2ccccc2)cc1[N+](=O)[O-],14.1
15,O=C(Cn1[nH]c(=O)c2ccccc2c1=O)NCc1cccnc1,18.2
16,CN(C)[C@@H]1C(=O)C(C(N)=O)=C(O)[C@@]2(O)C(=O)C3=C(O)c4c(O)cccc4[C@@](C)(O)[C@H]3[C@H](O)[C@@H]12.O,11.9
17,Cc1cc(C)nc(NNC2=CC(=[N+]3CCCCC3)CC(C)(C)C2)n1.[I-],-1.54
18,COc1ccc(C(=O)NC(=O)COC(=O)c2ccc(C)o2)cc1,-0.956
19,O=C(COC(=O)/C=C/c1nc2ccccc2s1)Nc1cccc2ccccc12,4.16
20,COCCNC(=O)c1cccc(NC(=O)C2=C(C)OCCS2)c1,21.9
21,COc1ccc(S(=O)(=O)N2CCCCCC2)cc1C(=O)OCC(=O)NC(C)(C)C,7.68
22,CC1CN(C(=S)Nc2cccc([N+](=O)[O-])c2)CC(C)O1 (stereo not shown),4.48

row,Compound,"hERG current change (%, negative = inhibition) at 1uM [%]"
1,CCCNCc1cc(OC)c(OCCC)cc1Cl.Cl,2.01
2,Cc1cccc(C(=O)NC(CC(=O)O)c2ccc(OC3CCCC3)cc2)c1[N+](=O)[O-] (stereo not shown),14.5
3,Cc1cc(C)c(NC(=O)CSc2nnc(CNC(=O)c3c(F)cccc3Cl)o2)c(C)c1,17.2
4,CC1(C)CC(=O)C(C(O)c2cccc([N+](=O)[O-])c2)C(C)(C)N1 (stereo not shown),7.76
5,Cc1nc(Nc2cccc(C(C)O)c2)c2nnn(Cc3ccccc3F)c2n1 (stereo not shown),7.21
6,O=C(Nc1nc2c(s1)CCCC2)c1cc2n(n1)C(C(F)(F)F)CC(C1CC1)N2 (stereo not shown),11.3
7,CC1=CC(C)(C)NC(=S)N1c1ccc(C)cc1C,5.69
8,Cc1cc2c(ncn2C)c(NS(=O)(=O)c2ccc(F)cc2)c1C,-1.31
9,O=c1c2ccccc2nc2n1C(CSCc1ccccc1)CS2 (stereo not shown),-8.16
10,CN1CCN(CC(=O)Nc2nc(-c3c[nH]c4ccccc34)cs2)CC1,10.5
11,CC12C=CC3(CN(Cc4ccccc4)C(=O)C3C1C(=O)NCc1ccco1)O2 (stereo not shown),6.32
12,COc1ccc2[nH]cc(CCNC(=O)CS(=O)(=O)Cc3ccccc3)c2c1,15.7
13,Fc1ccc(-c2n[nH]c(=S)n2-c2ccc3c(c2)OCCO3)cc1,7.72
14,CCc1nc(SCC(=O)Nc2c(C)n(C)n(-c3ccccc3)c2=O)n[nH]1,-5.84
15,Cc1ccc(-n2cccn2)cc1,29.8
16,Cc1ccc(NC(=O)CSc2cccc[n+]2[O-])c([N+](=O)[O-])c1,9.89
17,COc1ccc(NC(=O)COc2ccccc2C#N)c(S(=O)(=O)N2CCCCC2)c1,1.8
18,CSCCNCc1cn(-c2ccc(F)cc2F)nc1-c1ccccc1C,5.99
19,Cc1ccc([N+](=O)[O-])cc1NC(=O)c1ccc2c(c1)OCO2,15.2
20,O=S(=O)(Nc1nc2ccccc2nc1OCC(F)(F)F)c1cccs1,10.2
21,CCc1cnccc1CCC(=O)Nc1ccccc1C,2
22,Clc1ccc(SCc2cc(-c3ccccc3)on2)cc1,8.23

row,Compound,"hERG current change (%, negative = inhibition) at 1uM [%]"
1,CC(=O)c1cccc(NC(=O)CCC(=O)Oc2ccc(C)cc2)c1,-3.64
2,N#C/C(=C\c1ccc[nH]1)C(=O)NCC1CCCO1 (stereo not shown),9.61
3,CCOC(=O)c1cnc(SC2CC(=O)N(c3ccccc3)C2=O)nc1N (stereo not shown),14.8
4,CN(Cc1ccco1)C(=O)CCc1nc2sc3c(c2c(=O)[nH]1)CCCC3,-2.08
5,CCOC(=O)c1ccc(NC(=S)N(CCN2CCCCCC2)Cc2cccs2)cc1,8.82
6,O=C(O)c1ccc(S(=O)(=O)NC2CCCc3ccccc32)cc1 (stereo not shown),0.186
7,CN1/C(=C\C(=S)Nc2ccccc2)C(C)(C)c2ccccc21,10.9
8,Cc1ccc(/C=C/C(=O)O)cc1S(=O)(=O)Nc1ccc(C(=O)O)cc1,2.74
9,N#CC(=C=[N-])c1nc2ccccc2nc1-[n+]1cccc(NC(=O)c2cccs2)c1,3.38
10,Cc1ccc(NC(=O)C2CCN(C(=O)NC3CCCCC3)CC2)cc1,9.08
11,O=C(CSc1nnc(-c2ccncc2)s1)Nc1ccc(Cl)c(C(=O)O)c1,16.2
12,Cc1ccc(C)c(N2CCN(S(=O)(=O)c3csc(C(N)=O)c3)CC2)c1,10.7
13,O=C(CSc1ccccc1Cl)N1CCC(c2nc3ccccc3s2)CC1,6.29
14,CCN(CC)C(=O)C1=C(C)NC(=O)NC1c1ccccc1F (stereo not shown),-2.94
15,COc1ccc(S(=O)(=O)c2ccc(OCC3CO3)cc2)cc1 (stereo not shown),12.7
16,CCOc1ccc(C(=O)C[n+]2ccc(C(=O)NCCO)cc2)cc1.[Br-],11.4
17,Cc1cc(OCC(=O)N[C@@H](Cc2ccccc2)C(=O)O)c2c3c(c(=O)oc2c1)CCCC3,6.7
18,O=C(Nc1ccc(S(=O)(=O)Nc2ncccn2)cc1)c1ccc(N2CCCC2=O)cc1,13.8
19,CCN(CC(=O)NCc1cccs1)CC(=O)Nc1cccc(S(N)(=O)=O)c1,14.5
20,c1ccc(-c2csc(NC3CCCCC3)n2)cc1,14.8
21,CCCCCCNCc1ccc(Br)cc1.Cl,-23.8
22,O=C(c1ccc(Cn2cc([N+](=O)[O-])cn2)o1)N1CCCCCC1,3.04

row,Compound,"hERG current change (%, negative = inhibition) at 1uM [%]"
1,COc1ccc(N2CCN(C(=O)CSc3nnc(COc4cccc5cccnc45)o3)CC2)cc1,4.4
2,Cc1ccc(-c2nc3ncccn3c2Nc2ccc3c(c2)OCO3)o1,-13.3
3,C=C1CC2C(=O)N(Cc3cc(OC)ccc3OC)C(C(=O)OCC)(C(=O)OCC)C1N2C(=O)OC(C)(C)C (stereo not shown),10.1
4,COc1ccc(OC)c(C2SCCN2S(C)(=O)=O)c1 (stereo not shown),6.18
5,CC1CCCN(C(=O)C2CC(=O)N(c3ccc(Cl)cc3)C2)C1 (stereo not shown),8.18
6,CC(=O)Nc1nn(C)c2nc3ccc(C)cc3cc12,13.1
7,COc1ccc(S(=O)(=O)c2c(O)c3ccc(C(=O)Nc4ccccc4)cc3[nH]c2=O)cc1,14.4
8,CCN(CC)C(c1ccc(F)cc1)c1nnnn1C1CCCCC1.Cl (stereo not shown),-1.16
9,Cc1cccc(-n2c(Cc3ccccc3)nnc2SCc2ccc([N+](=O)[O-])cc2)c1,4.5
10,CC(C)=C1C2CCC1C(C(=O)NCCc1ccccc1)C2C(=O)O (stereo not shown),19.1
11,COc1ccc(/C=C/C(=O)NCC(=O)N2CCC(N(C)CCN3CCOCC3)CC2)cc1OC,3.33
12,COc1ccccc1C(=O)NNC(=O)C1CCCO1 (stereo not shown),11.5
13,Cn1c(N)c(C(=O)COC(=O)COc2ccc(Br)cc2)c(=O)n(C)c1=O,-2.99
14,CC(=O)c1ccc(NS(=O)(=O)c2ccc(C)cc2)cc1,19.4
15,COC(=O)c1ccc(COc2ccc(C)c(C)c2)o1,15.6
16,CCOC(=O)c1sc2nc(C)nc(NC3CCC(O)CC3)c2c1C (stereo not shown),12
17,c1coc(CNc2ncnc3sc4c(c23)CCCCC4)c1,-16
18,COc1cccc(-c2csc(N3CCN(C(=S)NCC(C)C)CC3)n2)c1,7.06
19,N#CCCn1cc(C=C(C#N)C#N)c(-c2ccc(Cl)cc2)n1,2.36
20,CCOc1ccc(NC(=O)CC2SC(=O)N(c3ccccc3)C2=O)cc1 (stereo not shown),16.5
21,CN1C(=O)S/C(=C\c2ccccc2OCc2ccc(C(=O)O)cc2)C1=O,4.87
22,Cc1ccc(S(=O)(=O)N(C)c2ccc(C(=O)NCCc3ccccc3)cc2)cc1,-1.11

# From paper PMC4336329 (PLoS ONE, 2015)
